Assay results published in PubChem BioAssay (Tox21).
The shares of active, inactive and inconclusive entries below differ from those in the screen. For some assays here: Potencies of inconclusive entries are doubtful fits and often do not repeat. Active and inactive are the calls of the source. Unless noted, the call rests on the fitted dose curve.

Tests used:
[1] = qHTS assay to identify small molecule agonists of the endoplasmic reticulum stress response signaling pathway (AID 1159516; active means well fitted activation curve with a large enough effect in the signal ratio in the repeat runs, not every such curve was filed as active; inconclusive means weak or mixed curves, or effect the other way; the % refers to the signal ratio; further: potency means the concentration at half of the fitted maximal effect; on activation: on the % scale 0 is the no-effect control and ±100 the full control effect); details: ESRE-bla HeLa, ER stress beta-lactamase reporter, 5 h; activation: at 61 µM (top of the series) unless noted
Outline: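 ER stress element reporter (bla) in HeLa. 1,500 cells/well, overnight attachment; 5 hr compound; 2 hr RT substrate; dual-emission fluorescence.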

[2] = qHTS assay to identify small molecule agonists of the AP-1 signaling pathway (AID 1159526); details: ME-180 AP-1-bla reporter, beta-lactamase FRET ratio, 5 h; further: potency means the concentration at half of the fitted maximal effect; on activation: on the % scale 0 is the no-effect control and ±100 the full control effect
[3] = target: Retinoic acid receptor RXR-alpha (Homo sapiens) (UniProt P19793); assay: qHTS assay to identify small molecule agonists of the RXR signaling pathway (AID 1159527); details: HEK293T RXRa-UAS-bla, beta-lactamase ratio, 16 h; further: nearly all actives have a fitted effect of over 35% in size; further: potency means the concentration at half of the fitted maximal effect
Sequence of UniProt P19793 (P19793 whole entry, looked up): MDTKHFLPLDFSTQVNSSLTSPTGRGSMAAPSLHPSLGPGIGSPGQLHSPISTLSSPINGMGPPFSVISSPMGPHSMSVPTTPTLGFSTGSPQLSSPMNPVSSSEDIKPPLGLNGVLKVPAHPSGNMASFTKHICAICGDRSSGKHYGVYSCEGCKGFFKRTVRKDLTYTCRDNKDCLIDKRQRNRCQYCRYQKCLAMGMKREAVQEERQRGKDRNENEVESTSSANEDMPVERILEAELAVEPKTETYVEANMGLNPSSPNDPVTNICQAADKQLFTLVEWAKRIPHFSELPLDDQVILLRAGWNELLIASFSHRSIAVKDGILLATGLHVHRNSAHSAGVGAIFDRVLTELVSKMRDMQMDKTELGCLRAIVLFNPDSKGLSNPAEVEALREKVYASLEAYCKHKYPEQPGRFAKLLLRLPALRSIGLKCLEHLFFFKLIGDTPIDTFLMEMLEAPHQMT
Outline: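 Fluorescence ratio readout (460 vs 530 nm) from GeneBLAzer RXR-alpha HEK 293T cells after 16 hr compound treatment; cells seeded 5 hr beforehand in low-serum, charcoal-stripped medium.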

[4] = qHTS assay to identify small molecule antagonists of the peroxisome proliferator-activated receptor delta (PPARd) signaling pathway - cell viability counter screen (AID 743213; active means well fitted curve in the direction sought with a large enough effect in the repeat runs; inconclusive means weak or mixed curves; inactive means no such curve, though single readings can be large; an effect the other way counts as inactive or inconclusive; further: nearly all actives have a fitted effect of over 50% in size; further: potency means the concentration at half of the fitted maximal effect; on viability change, negative = cytotoxic: on the % scale 0 is the no-effect control and ±100 the full control effect); details: PPARd-bla HEK293H viability, CellTiter-Glo luminescence, 17 h; viability change, negative = cytotoxic: at 62 µM (top of the series) unless noted
Outline: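 PPARd-bla HEK293H cells were treated with compounds plus agonist L165041 (300 nM final) for 17 h at 37 C. Viability was then read in the same wells by CellTiter-Glo luminescence after 30 min at room temperature.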

[5] = target: Peroxisome proliferator-activated receptor delta (Homo sapiens) (UniProt Q03181); assay: qHTS assay to identify small molecule antagonists of the peroxisome proliferator-activated receptor delta (PPARd) signaling pathway (AID 743215; active means well fitted inhibition curve with a large enough effect in the signal ratio in the repeat runs, not every such curve was filed as active; inconclusive means weak or mixed curves, or effect the other way; inactive means no such curve, though single readings can be large or run the other way; the % refers to the signal ratio;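 further: cells stimulated with agonist L165041 at 300 nM final during compound exposure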; further: potency means the concentration at half of the fitted maximal effect; on ratio activity, negative = inhibition: on the % scale 0 is the no-effect control and ±100 the full control effect); details: HEK293H PPARd-UAS-bla, beta-lactamase FRET ratio, antagonist, 17 h; ratio activity, negative = inhibition: at 62 µM (top of the series) unless noted
Sequence of UniProt Q03181 (Q03181 whole entry, looked up): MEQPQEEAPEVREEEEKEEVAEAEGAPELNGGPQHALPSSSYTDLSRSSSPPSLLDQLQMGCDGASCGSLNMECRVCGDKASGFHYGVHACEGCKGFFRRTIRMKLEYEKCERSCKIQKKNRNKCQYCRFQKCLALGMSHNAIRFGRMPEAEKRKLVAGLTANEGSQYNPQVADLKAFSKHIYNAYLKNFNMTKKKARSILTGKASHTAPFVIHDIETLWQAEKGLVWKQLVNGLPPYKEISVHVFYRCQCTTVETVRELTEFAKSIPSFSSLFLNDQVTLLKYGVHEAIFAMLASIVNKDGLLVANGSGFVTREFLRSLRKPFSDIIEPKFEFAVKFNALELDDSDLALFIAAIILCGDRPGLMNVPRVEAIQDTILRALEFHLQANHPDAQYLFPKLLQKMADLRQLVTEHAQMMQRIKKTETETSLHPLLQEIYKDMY
Outline: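 Antagonist-mode beta-lactamase reporter screen: HEK293H cells with UAS-bla under PPARd control, stimulated by 300 nM L165041 (final) alongside test compound for 17 h at 37 C, then FRET fluorescence after 2 h substrate incubation.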

[6] = target: Bile acid receptor (Homo sapiens) (UniProt Q96RI1); assay: qHTS assay to identify small molecule antagonists of the farnesoid-X-receptor (FXR) signaling pathway (AID 743217; active means well fitted inhibition curve with a large enough effect in the signal ratio in the repeat runs, not every such curve was filed as active; inconclusive means weak or mixed curves, or effect the other way; inactive means no such curve, though single readings can be large or run the other way; the % refers to the signal ratio; further: potency means the concentration at half of the fitted maximal effect); details: HEK293T FXR-UAS-bla, beta-lactamase ratio, CDCA-stimulated, 16 h; activity change, negative = inhibition: at 62.6 µM (top of the series) unless noted
Sequence of UniProt Q96RI1 (Q96RI1 whole entry, looked up): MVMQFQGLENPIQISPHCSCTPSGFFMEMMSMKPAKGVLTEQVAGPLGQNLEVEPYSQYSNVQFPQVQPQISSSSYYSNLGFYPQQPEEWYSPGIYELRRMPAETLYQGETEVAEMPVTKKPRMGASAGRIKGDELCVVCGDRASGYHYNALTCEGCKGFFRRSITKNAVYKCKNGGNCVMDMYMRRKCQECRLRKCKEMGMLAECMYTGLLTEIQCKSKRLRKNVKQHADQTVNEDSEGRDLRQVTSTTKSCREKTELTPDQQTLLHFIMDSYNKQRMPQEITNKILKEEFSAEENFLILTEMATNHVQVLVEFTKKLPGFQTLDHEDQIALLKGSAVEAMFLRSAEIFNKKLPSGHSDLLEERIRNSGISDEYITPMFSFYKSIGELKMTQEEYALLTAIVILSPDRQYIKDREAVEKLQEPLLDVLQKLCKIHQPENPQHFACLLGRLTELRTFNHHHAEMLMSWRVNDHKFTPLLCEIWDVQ
Outline: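 Beta-lactamase reporter under UAS control in HEK 293T cells; compound exposure 16 h at 37 °C in the presence of chenodeoxycholic acid (50 uM final); signal from B/G FRET substrate after 2 h at room temperature.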

[7] = target: Peroxisome proliferator-activated receptor delta (Homo sapiens) (UniProt Q03181); assay: qHTS assay to identify small molecule agonists of the peroxisome proliferator-activated receptor delta (PPARd) signaling pathway (AID 743212); details: HEK293H PPARd-UAS-bla, beta-lactamase FRET ratio, 17 h; activation: at 62.6 µM (top of the series) unless noted; further: potency means the concentration at half of the fitted maximal effect
Outline: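 A PPARd-bla HEK293H line with beta-lactamase under an Upstream Activator Sequence is treated with compounds at 37 C. Substrate loading for 2 h at room temperature precedes the fluorescence measurement.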

[8] = qHTS assay to identify small molecule agonists of the farnesoid-X-receptor (FXR) signaling pathway - cell viability counter screen (AID 743218; active means well fitted curve in the direction sought with a large enough effect in the repeat runs; inconclusive means weak or mixed curves; inactive means no such curve, though single readings can be large; an effect the other way counts as inactive or inconclusive; further: nearly all actives have a fitted effect of over 45% in size; further: potency means the concentration at half of the fitted maximal effect); details: FXR-bla HEK293T viability, CellTiter-Glo luminescence, 16 h; viability change, negative = cytotoxic: at 62.6 µM (top of the series) unless noted
Outline: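 In GeneBLAzer FXR-UAS-bla HEK 293T cells, compounds act for 16 h at 37 C. Cell viability is then scored in the reporter wells by CellTiter-Glo, 30 min at RT, luminescence.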

[9] = target: Bile acid receptor (Homo sapiens) (UniProt Q96RI1); assay: qHTS assay to identify small molecule agonists of the farnesoid-X-receptor (FXR) signaling pathway (AID 743220; active means well fitted activation curve with a large enough effect in the signal ratio in the repeat runs, not every such curve was filed as active; inconclusive means weak or mixed curves, or effect the other way; the % refers to the signal ratio; further: potency means the concentration at half of the fitted maximal effect); details: HEK293T FXR-UAS-bla, beta-lactamase FRET ratio, 16 h; activation: at 62.6 µM (top of the series) unless noted
Outline: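 Beta-lactamase reporter under UAS control in GeneBLAzer FXR HEK 293T cells (5000/well) measured with LiveBLAzer FRET substrate after 2 h at room temperature. Compound exposure lasted 16 h at 37C.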

[10] = target: Vitamin D3 receptor (Homo sapiens) (UniProt P11473); assay: qHTS assay to identify small molecule agonists of the vitamin D receptor (VDR) signaling pathway (AID 743222); details: HEK293T VDR-UAS-bla, beta-lactamase FRET ratio, 16 h; activation: at 63.5 µM (top of the series) unless noted; further: potency means the concentration at half of the fitted maximal effect
Sequence of UniProt P11473 (P11473 whole entry, looked up): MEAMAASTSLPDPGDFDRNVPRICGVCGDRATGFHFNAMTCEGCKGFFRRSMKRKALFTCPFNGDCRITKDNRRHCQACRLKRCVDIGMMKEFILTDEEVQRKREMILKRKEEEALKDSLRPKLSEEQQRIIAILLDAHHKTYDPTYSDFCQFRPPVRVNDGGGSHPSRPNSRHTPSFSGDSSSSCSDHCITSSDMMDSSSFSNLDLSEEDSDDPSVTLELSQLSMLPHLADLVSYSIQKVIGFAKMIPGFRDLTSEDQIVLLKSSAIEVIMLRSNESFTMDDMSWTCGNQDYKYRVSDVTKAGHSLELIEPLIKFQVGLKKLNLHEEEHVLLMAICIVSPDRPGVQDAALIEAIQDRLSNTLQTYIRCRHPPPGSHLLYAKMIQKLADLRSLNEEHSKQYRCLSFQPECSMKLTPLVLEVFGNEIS
Outline: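 Agonist activity measured in VDR-bla reporter cells. Exposure 16 h, 37C, 5% CO2; detection by B/G FRET substrate, 2 h RT.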

[11] = target: Vitamin D3 receptor (Homo sapiens) (UniProt P11473); assay: qHTS assay to identify small molecule antagonists of the vitamin D receptor (VDR) signaling pathway (AID 743223; active means well fitted inhibition curve with a large enough effect in the signal ratio in the repeat runs, not every such curve was filed as active; inconclusive means weak or mixed curves, or effect the other way; inactive means no such curve, though single readings can be large or run the other way; the % refers to the signal ratio; further: potency means the concentration at half of the fitted maximal effect); details: VDR-UAS-bla HEK293T, beta-lactamase FRET ratio, 16 h; activity change, negative = inhibition: at 61 µM (top of the series) unless noted
Outline: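 Beta-lactamase activity in VDR-bla cells is measured by FRET substrate fluorescence (2 h, room temperature) after cells spend 16 h at 37C with test compound and 3 nM final 1alpha,25-dihydroxyvitamin D3.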

[12] = qHTS assay to identify small molecule agonists of the vitamin D receptor (VDR) signaling pathway - cell viability counter screen (AID 743224; active means well fitted curve in the direction sought with a large enough effect in the repeat runs; inconclusive means weak or mixed curves; inactive means no such curve, though single readings can be large; an effect the other way counts as inactive or inconclusive; further: potency means the concentration at half of the fitted maximal effect; nearly all actives have a fitted effect of over 50% in size); details: VDR-bla HEK293T viability, CellTiter-Glo luminescence, 16 h; activity change, negative = cytotoxicity: at 62.6 µM (top of the series)
Outline: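 VDR-bla cell line, quantitative HTS format; 16 h compound incubation (37C, 5% CO2); ATP-based CellTiter-Glo luminescence measured in the reporter assay wells.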

[13] = qHTS assay to identify small molecule antagonists of the vitamin D receptor (VDR) signaling pathway - cell viability counter screen (AID 743225; active means well fitted curve in the direction sought with a large enough effect in the repeat runs; inconclusive means weak or mixed curves; inactive means no such curve, though single readings can be large; an effect the other way counts as inactive or inconclusive; further: potency means the concentration at half of the fitted maximal effect; nearly all actives have a fitted effect of over 50% in size); details: VDR-bla HEK293T viability, CellTiter-Glo luminescence, 16 h; viability change, negative = cytotoxic: at 61 µM (top of the series) unless noted
Outline: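 In this counter screen, VDR-bla HEK 293T cells receive test compound plus 3 nM final calcitriol for 16 h at 37C. Room-temperature steps of 2 h with the beta-lactamase substrate, then 30 min with CellTiter-Glo, precede the luminescence read.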

[14] = qHTS assay to identify small molecule agonists of the RXR signaling pathway - cell viability counter screen (AID 1159529; active means well fitted curve in the direction sought with a large enough effect in the repeat runs; inconclusive means weak or mixed curves; inactive means no such curve, though single readings can be large; an effect the other way counts as inactive or inconclusive; further: potency means the concentration at half of the fitted maximal effect; nearly all actives have a fitted effect of over 50% in size)
Outline: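 Viability read-out for the RXR-alpha agonist qHTS: luminescent CellTiter-Glo signal after 30 min at RT. HEK 293T bla reporter cells, 2% charcoal-stripped FBS, 16 hr compound incubation; tetraoctyl ammonium bromide as cytotoxic control.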

[15] = qHTS assay to identify small molecule antagonists of the farnesoid-X-receptor (FXR) signaling pathway - cell viability counter screen (AID 743221; active means well fitted cell-killing curve with a large enough effect in the repeat runs, not every such curve was filed as active; inconclusive means weak or mixed curves, or effect the other way; inactive means no such curve, though single readings can be large or run the other way; further: nearly all actives have a fitted effect of over 50% in size; further: potency means the concentration at half of the fitted maximal effect); details: FXR-bla HEK293T viability, CellTiter-Glo luminescence, 16 h; activity change, negative = cytotoxicity: at 62.6 µM (top of the series)
Outline: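 Compound effects on cell number were measured as CellTiter-Glo luminescence in HEK 293T cells expressing FXR-UAS-bla, after 16 h at 37 C with 50 uM CDCA (final).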

[16] = qHTS assay to identify small molecule antagonists of the retinoid acid receptor (RAR) signaling pathway - cell viability counter screen (AID 1159551; active means well fitted curve in the direction sought with a large enough effect in the repeat runs; inconclusive means weak or mixed curves; inactive means no such curve, though single readings can be large; an effect the other way counts as inactive or inconclusive; further: potency means the concentration at half of the fitted maximal effect; nearly all actives have a fitted effect of over 35% in size)
Outline: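 Following overnight attachment, C3RL4 reporter cells received DMSO-dissolved compounds and then retinol (1 uM final). Six hours later at 37 C, ATP content was measured by CellTiter-Glo luminescence.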

[17] = qHTS assay to identify small molecule agonists of the AP-1 signaling pathway - cell viability counter screen (AID 1159525); further: nearly all actives have a fitted effect of over 55% in size
Outline: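 ME-180 AP-1-bla, 2500 cells/well, Opti-MEM + 0.5% dialyzed FBS; overnight 37 °C; cpd 15-pt titration, 5 h 37 °C; CellTiter-Glo 30 min RT; luminescence read; normalised to TOAB and DMSO controls.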

[18] = activation: at 76.8 µM (top of the series) unless noted
Tags describe the fitted curve by direction and shape or compound fluorescence and quenching.

O=C1c2ccccc2C(=O)c2c1ccc(O)c2O
inactive: Potency [1] | Potency [2, 18]
inconclusive: Potency [3, 18] 26.8 µM [inhibitor, partial curve, poor fit]

Cc1cccc(C(=O)O)c1O
inconclusive: activation [1] 9.44%
inactive: Potency [4] | Potency [5] | Potency [6] | Potency [2, 18] | Potency [3, 18]

Nc1ccc2c3c(cccc13)-c1ccccc1-2
active: Potency [4] 49.5 µM
inconclusive: Potency [7] 27.8 µM [rising, partial curve] | Potency [5] 24.8 µM [fluorescent, partial curve] | Potency [6] 24.8 µM [rising, partial curve] | Potency [8] 55.5 µM [cytotoxic] | Potency [9] 39.3 µM [fluorescent, partial curve] | Potency [10] 24.8 µM [fluorescent, partial curve] | Potency [11] 39.3 µM [rising, partial curve] | Potency [12] 55.5 µM [cytotoxic, partial curve] | Potency [13] 49.5 µM [cytotoxic, partial curve] | Potency [1] 22.1 µM [fluorescent, partial curve] | Potency [2, 18] 24.8 µM [partial curve] | Potency [3, 18] 22.1 µM [rising, partial curve] | Potency [14] 55.5 µM [cytotoxic, single point]

Fc1ccc([C@@H]2CCNC[C@H]2COc2ccc3c(c2)OCO3)cc1
inconclusive: Potency [4] 26.6 µM [cytotoxic, partial curve, poor fit] | ratio activity, negative = inhibition [5] -30.1% | Potency [8] 13.3 µM [cytotoxic, partial curve] | Potency [15] 21.1 µM [falling, partial curve, poor fit] | activation [10] -22.5% | activity change, negative = inhibition [11] -33% | Potency [1] 12 µM [falling, partial curve] | Potency [2, 18] 23.9 µM | activation [3, 18] -16.3% [at 35.3 µM]

Nc1c(S(=O)(=O)O)cc(Br)c2c1C(=O)c1ccccc1C2=O
inconclusive: Potency [8] 1.38 µM [rising, partial curve, poor fit] | activation [1] -1.12% | activation [2, 18] -13.5% | activation ([3]; at 35.3 µM (top of the series)) -19.4% | activation ([3]; at 76.8 µM (top of the series)) -23.8% | Potency [16] 27.3 µM [cytotoxic, partial curve, poor fit]
inactive: Potency [15] | activation ([2]; at 35.3 µM (top of the series)) -15.1%

CN(C)CC[C@@H](c1ccc(Cl)cc1)c1ccccn1
inconclusive: Potency [2, 18] 26.8 µM [activator, partial curve, poor fit]
inactive: Potency [1]

CC(C)CC(C)CC(C)CC(C)COC(=O)c1ccccc1C(=O)OCC(C)CC(C)CC(C)CC(C)C (stereo not drawn)
inactive: Potency [5] | Potency [8] | Potency [1] | Potency [2, 18] | Potency [3, 18]
inconclusive: activation [7] 10.3% | activity change, negative = inhibition [11] 18.5%

CCC(C)(CCC(C)C)C(=O)[O-].CCC(C)(CCC(C)C)C(=O)[O-].[Zn+2] (stereo not drawn)
inactive: Potency [1] | Potency [17] | Potency [3, 18]
inconclusive: Potency [11] 0.0039 µM [falling, full curve]

CCN(CC)CCCC(C)Nc1c2ccc(Cl)cc2nc2ccc(OC)cc12 (stereo not drawn)
active: Potency [4] 29.8 µM | Potency [8] 13.3 µM | Potency [15] 26.6 µM | Potency [13] 23.9 µM
inconclusive: Potency [12] 10.6 µM [cytotoxic, partial curve] | Potency [1] 26.8 µM [fluorescent, single point] | activation [2, 18] -17.9% [at 35.3 µM] | Potency [3, 18] 5.35 µM [fluorescent, full curve] | Potency [14] 2.39 µM [cytotoxic, full curve]

O=C(O)c1ccccc1[N+](=O)[O-]
inactive: Potency [10] | Potency [1] | Potency [17]
inconclusive: Potency [6] 48.6 µM [rising, single point] | Potency [8] 0.194 µM [rising, full curve, poor fit] | Potency [15] 43.3 µM [falling, partial curve, poor fit] | activation [3, 18] 21.8%

CC1(C)[C@@H](OC(=O)CCC(=O)O)CC[C@]2(C)[C@H]3C(=O)C=C4[C@@H]5C[C@@](C)(C(=O)O)CC[C@]5(C)CC[C@@]4(C)[C@]3(C)CC[C@@H]12
inconclusive: Potency [7] 29.8 µM | ratio activity, negative = inhibition [5] 1.87% | Potency [6] 10.6 µM [activator, partial curve, poor fit] | Potency [9] 26.6 µM [rising, partial curve, poor fit] | Potency [10] 23.7 µM [fluorescent, partial curve] | Potency [11] 15.1 µM [fluorescent, partial curve, poor fit] | Potency [1] 30.1 µM [rising, single point] | Potency [2, 18] 23.9 µM [activator] | Potency [3, 18] 26.8 µM [fluorescent]

CC1(C)C(C=C(Cl)Cl)C1C(=O)OCc1cccc(Oc2ccccc2)c1 (stereo not drawn)
inactive: Potency [7] | Potency [2, 18]
inconclusive: Potency [11] 21.9 µM [activator, full curve] | activation [1] 10.7% | Potency [3, 18] 21.9 µM [inhibitor, partial curve]
